# Over roughly 33,000 sequences, “E-score (-0.5 to 0.5)” has its median near -0.043; the highest 2% begin near 0.37. Some of the results follow.
# Biological target: T1, Upc2 (UniProt Q12151)
# T1 sequence: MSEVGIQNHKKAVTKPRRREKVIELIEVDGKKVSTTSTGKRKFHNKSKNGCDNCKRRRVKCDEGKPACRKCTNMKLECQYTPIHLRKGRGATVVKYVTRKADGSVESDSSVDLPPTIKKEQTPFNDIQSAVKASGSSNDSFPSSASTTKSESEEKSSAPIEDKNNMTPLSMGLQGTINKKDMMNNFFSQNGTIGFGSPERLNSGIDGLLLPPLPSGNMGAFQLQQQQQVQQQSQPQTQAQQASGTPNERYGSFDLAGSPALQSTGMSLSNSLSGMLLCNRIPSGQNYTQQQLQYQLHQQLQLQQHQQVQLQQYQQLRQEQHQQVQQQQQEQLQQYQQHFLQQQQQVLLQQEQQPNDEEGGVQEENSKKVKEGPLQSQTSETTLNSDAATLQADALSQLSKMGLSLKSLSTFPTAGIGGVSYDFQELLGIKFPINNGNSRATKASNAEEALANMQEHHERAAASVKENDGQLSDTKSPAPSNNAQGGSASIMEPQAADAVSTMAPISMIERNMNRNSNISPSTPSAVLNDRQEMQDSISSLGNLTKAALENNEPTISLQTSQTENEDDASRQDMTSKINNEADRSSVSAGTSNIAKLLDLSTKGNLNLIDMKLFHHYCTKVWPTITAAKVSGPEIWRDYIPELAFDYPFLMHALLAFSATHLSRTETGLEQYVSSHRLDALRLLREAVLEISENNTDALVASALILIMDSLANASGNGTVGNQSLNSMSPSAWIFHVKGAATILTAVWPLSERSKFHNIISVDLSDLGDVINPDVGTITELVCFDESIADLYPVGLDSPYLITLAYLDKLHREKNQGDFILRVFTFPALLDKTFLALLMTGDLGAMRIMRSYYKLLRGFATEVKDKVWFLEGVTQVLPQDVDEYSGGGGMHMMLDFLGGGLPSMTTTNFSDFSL
# Assay: PBM E-score (8-mer binding enrichment) (E-score (-0.5 to 0.5)); higher = stronger / more preferred TF binding; most listed sequences are background and not binding sites
# Details: protein concentration: 200 nM; construct: GST-full length
# Method in brief: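 Masliner-normalised scans of fluorescent anti-GST signal were the basis for scoring. That signal came from GST-tagged yeast transcription factors applied at about 100-200 nM to double-stranded universal all-10-mer Agilent arrays on fresh or once-stripped slides. Each ungapped eight-base word, pooled with its reverse complement, received an E-score from the Universal PBM Analysis Suite.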
row,Sequence,PBM E-score
1,GACTTCTA,-0.0663
2,AGGCAGAC,-0.162
3,ACTCGACT,-0.107
4,CCTGAACA,-0.0282
5,GAGCCCAC,0.00447
6,ACGGTGGA,0.227
7,CCTAAGTC,-0.21
8,AGTGAAAT,-0.163
9,ACCTGCTG,-0.231
10,AAGGAAGA,-0.151
11,AAACCCGA,0.248
12,AGGCATGC,-0.0459
13,CCCATGTA,-0.0824
14,CGCGAGAC,0.196
15,AGGAGTTC,-0.126
16,AACTTCAG,-0.0604
17,GGTTGAAA,-0.142
18,AAGTGTAC,0.163
19,GTGATTGA,-0.0994
20,CGCAAACC,0.205
21,CCATATTA,-0.0504
22,GAGATAGA,0.1
23,TCCATGGA,-0.204
24,GGCCTCTA,-0.0932
25,TAGTGTAA,0.0596

row,Sequence,PBM E-score
1,TATGCCCA,-0.189
2,AAATGCAC,-0.0128
3,ATCAAGTG,-0.242
4,CCTACCTC,-0.0799
5,GTCGGGAA,0.14
6,CCCCCGTA,0.279
7,CTACTGAA,-0.126
8,TACTTCAA,0.0135
9,CGGGCAAG,-0.0843
10,CCAAATTC,0.0452
11,ATTGTAGG,-0.0292
12,CCCTGGAG,-0.106
13,AGGGGACA,-0.227
14,CTATATTA,-0.0298
15,ATGACCCA,-0.222
16,CCCATAGC,-0.215
17,CGTTCATC,0.353
18,ATACGTAC,0.339
19,ATTACAGA,0.129
20,AAGAAGTG,0.00152
21,CAACGTAA,0.0631
22,ATAATTGC,-0.037
23,CGATAAGA,0.0792
24,CGTCTGAG,0.0949
25,GGTGGCAA,-0.185

row,Sequence,PBM E-score
1,AGAGTTGG,-0.241
2,CAAGGTAC,0.135
3,CATGTCTC,0.0139
4,GAAGGCCA,-0.213
5,AATAACAA,-0.0389
6,CACTACTG,-0.261
7,AAGAAAAG,-0.165
8,TCGTACAA,0.487
9,CCAAGCCA,-0.0835
10,ACTTTGTC,0.0592
11,CCAGCTCA,-0.202
12,GGGGCGTA,0.171
13,CACTACCG,-0.186
14,CCGGCTGA,-0.123
15,TCGACACA,0.0793
16,ATAGAGTA,0.0723
17,GGTGCGAA,0.176
18,ACAAGCCG,-0.119
19,GAACACGA,0.107
20,GGTTCAAC,0.0526
21,AAGATAGT,0.00824
22,ATTGACCG,0.113
23,CCCAGATA,-0.189
24,ATCTTATA,0.194
25,ACCATTCA,-0.248

row,Sequence,PBM E-score
1,ACAGCCGC,-0.173
2,CAACGCGG,-0.0183
3,TCCACTAA,-0.158
4,ACTCCTAA,-0.112
5,ATAACATA,0.106
6,ACTGCGTA,0.178
7,CGCCCGAG,-0.177
8,CTGGGTAA,-0.00044
9,AAGGGCCA,-0.314
10,CGCGCAAA,0.172
11,TGGCTACA,0.0472
12,CAAACAAA,0.0701
13,AAGGGAGA,-0.317
14,CACCTTGC,-0.0616
15,GCTGCATA,-0.173
16,GATCATGA,0.0871
17,CTCATCAC,-0.118
18,AGCTTTCA,-0.0969
19,ACCCCGAT,-0.219
20,AATGGCCA,-0.158
21,AGCGTCGA,0.0516
22,CAAACAGC,-0.0951
23,GGTTGGAC,-0.271
24,CGACGGTC,0.122
25,AAGTGCTA,-0.133

row,Sequence,PBM E-score
1,AATCCGCA,-0.152
2,AAGGTATC,-0.158
3,CTGGCGTA,0.0921
4,CTATGGTC,-0.0385
5,AATGTGCT,0.00011
6,TCCGGTCA,-0.122
7,ACGCTTTC,-0.074
8,CTGGCATC,-0.145
9,AGGGCCTA,-0.233
10,GAAACTAA,0.00434
11,GCTATGAA,-0.21
12,AACACAAT,0.0557
13,ATTGTACG,0.428
14,GTCCAGTA,-0.11
15,ATCGGGTG,0.0379
16,CTGCCCCA,-0.0538
17,ATACACGC,0.147
18,CAGAGTTC,-0.117
19,CCCGCTAG,-0.118
20,CGCCTCAC,-0.0329
21,GCTAAAAC,0.0226
22,GAACTTCA,-0.187
23,GGTGTCAA,-0.169
24,AGTGCCGA,-0.143
25,GAGATAGC,-0.156

row,Sequence,PBM E-score
1,GAATTTCA,-0.125
2,CTCATTGC,-0.0756
3,CCAGGCAC,-0.306
4,CCCTCTCG,0.0379
5,CAACCAAC,-0.166
6,TTCGGAAA,0.115
7,ATTAGATA,0.0616
8,AGCCTCCA,-0.197
9,CTAGCCTA,-0.349
10,CCTGACGA,-0.0951
11,CGCCCTTC,-0.0838
12,AGGACGGG,-0.202
13,TAGCGTAA,0.199
14,CTCTGCGC,0.0237
15,AGTATTGC,-0.00103
16,GGTACAAC,-0.0773
17,GCAGTTAA,0.0277
18,TCCTACCA,-0.268
19,ATTCCTTG,-0.12
20,GAAGGAAA,0.0226
21,TGAGGGCA,-0.0372
22,GGGTCAAC,-0.231
23,ACATCTAC,-0.0289
24,GGGTTCGA,-0.0373
25,AGCCGCAC,-0.0383

row,Sequence,PBM E-score
1,AACGTCAG,-0.209
2,CATCGTTC,0.416
3,AACGCTGT,0.0242
4,AATATCCC,-0.0942
5,ATTAGGGC,-0.313
6,CAAATGCG,0.053
7,ATTGAACC,-0.182
8,AGGCTGAT,-0.235
9,CCAAAAAA,-0.0391
10,GCTCCCCC,-0.304
11,GGAGCGAC,0.209
12,CGTTGGGC,-0.181
13,GAACTCTA,0.044
14,GAACGTAC,0.275
15,ATAACTCA,-0.0317
16,CTCTTTAA,-0.0799
17,ACTCTTGA,-0.136
18,GGGCATAA,-0.0918
19,TCAATTAA,0.0463
20,CATACGTA,0.315
21,GTGATCTA,0.00386
22,ACCACATA,0.0955
23,ACGCATCG,0.267
24,TCCCACGA,-0.152
25,CCGGACTA,-0.327

row,Sequence,PBM E-score
1,GCTAGGTA,-0.057
2,AGGGTAAG,-0.116
3,TAAACGCA,0.399
4,AGATGAAT,-0.206
5,CACACGAC,0.261
6,AAGTTGTG,-0.0439
7,ATTACACG,0.16
8,AACAAATA,0.188
9,AAAAACGT,0.0237
10,AGGCTTAC,-0.0341
11,CGGCATAC,0.182
12,GAAATCAC,0.0355
13,AAAATTCT,0.0514
14,CTGTTCCC,-0.246
15,CGGGGATC,-0.0274
16,AGTCGCCG,0.154
17,AAGTTGTC,-0.112
18,CAGCTCGA,-0.209
19,AGAAACGG,0.217
20,GCTGATTA,0.0887
21,GACGCGTA,0.274
22,GGTAACAA,0.0632
23,CATACTAC,-0.26
24,AGTACACG,0.198
25,GATAGATC,0.0671

row,Sequence,PBM E-score
1,CCAGTTGA,-0.135
2,GAGAAAGC,0.0515
3,ACTCCTGA,-0.202
4,AACCACGT,0.116
5,TACCTGCA,-0.0203
6,CACTCGGA,0.119
7,ACCCCGCT,0.00551
8,GGATGCTA,-0.0482
9,ATGTCCCA,-0.178
10,ATTCCAAG,-0.158
11,AATCATAA,-0.0124
12,TAAGTGCA,0.112
13,ATGTGGTC,-0.0101
14,CCGCTACC,0.153
15,AGACACTA,0.0521
16,ACCCAAAT,-0.0268
17,GATAGGGA,-0.252
18,AAGTCTAA,-0.145
19,CAATTTAG,-0.126

# From the supplement of paper PMC3334620
